Experimental data as given in the supplement of paper PMC11417369.
This is one part of the list.

system: PfHDP1 homeodomain (GST-tagged); assay: gcPBM binding intensity (ln(normalized median fluorescence intensity)); higher = stronger DNA binding
Procedure, shortened: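 Binding intensity values are the highest Masliner-normalised natural-log median intensity among replicate spots of either probe orientation. The binding step lasted 1 h in 1× PBS with 1% milk, 0.2 mg/ml BSA, 0.5% salmon testes DNA and 0.03% Triton X-100, using GST-tagged P. falciparum DNA-binding domains expressed in E. coli on an Agilent 4 × 180k array of primer-extended double-stranded 36-bp intergenic genomic probes plus negative controls. Alexa488 anti-GST antibody and a 488 nm scan detected bound protein.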

Row | Sequence | gcPBM binding intensity (ln)
1 | CAATTTTGCCCTTCCTGTACATATATTGAAAAATAT [XGTACX_site6388] | 6.41
2 | ATCTAGTACATACATACACACAACAATGTTATGAGA [CACACA_site3989] | 6.6
3 | GAAAGGGCAGGAACTATTAATACACTGATCGATAAG [CACACA_negctrl_site1458] | 6.53
4 | AATTATAGCTGTATCTGTACGCATTTATTTATAGAC [XGTACX_site5959] | 6.35
5 | TTAAATAATATTAGCCGTACAATTTAAAGATAATAA [XGTACX_site8503] | 6.26
6 | AAAAAAAAGTATGATTCTAAATTTATGTATATATAA [GTGCAC_negctrl_site669] | 6.1
7 | TTTAATACTTTATATGCATGCAGAGAAAAATGCTTG [TGCATGCA_site286] | 6.38
8 | ATTGTTTTATATAGAACACACATAAAAATATATATG [CACACA_site1193] | 6.3
9 | ATAAAATGAAATATATATGTGTATGCTTAACTTGTT [CACACA_negctrl_site431] | 6.48
10 | AAAGGATGTAATATAAACATATATATGTATATATAT [TGCATGCA_negctrl_site347] | 6.87
11 | TAATTTTTTTTAATAACACACATATATATATATATA [CACACA_site813] | 9.38
12 | TAATATTCCTTTTTAACACACATATGAACAAATAAA [CACACA_site153] | 6.63
13 | ATATTAAACAGACACACACACATATATTTATTTATA [CACACA_site7564] | 6.78
14 | TATAGCATATCTCACACACACATAATGAATATTATA [CACACA_site5877] | 6.55
15 | TATAGCTATGTATTCACACATAATATAAACTTTAAT [CACACA_site5889] | 6.31
16 | AAAATGAACTCACGAGCACACACACCCATATATATA [CACACA_site8247] | 7.05
17 | TGTATTATATAAAATTGTACATGCGAATTGTATAAC [XGTACX_site902] | 7.27
18 | AAATATTACCATGTGAAAATTTTACTGCAACATGAA [TGCATGCA_negctrl_site609] | 7.06
19 | TAAAAATTTACATGTTGTACATATAATTATATAATC [XGTACX_site4577] | 6.4
20 | AGGCTGCCATATTATACACACATTTTTAAAAAAATT [CACACA_site3843] | 6.72
21 | TAGTTAGGCCCTACATGTACATAATATATATTACTT [XGTACX_site1137] | 7.3
22 | ATCAACATTACATTTAGTACACATATATTTCTATGT [XGTACX_site4436] | 6.84

Row | Sequence | gcPBM binding intensity (ln)
23 | CTAATTAATATTTGTACACACATATTTAACCTACTA [CACACA_site3191] | 6.64
24 | TATATAAGTATAAAATGTACATAAAATTTTATGTTA [XGTACX_site2613] | 6.34
25 | TAAAATTCGAAAAATTGTACTATTTATATATCTGTA [XGTACX_site6478] | 5.98
26 | ATAATTTCAATATTTAATATCATATATATATATTTT [GTGCAC_negctrl_site713] | 6.41
27 | TAAAACAAAACAAAAATAGGATTATATTCCTTTTTT [CACACA_negctrl_site1003] | 5.9
28 | ATATATATATATATATGTACATATGTGTATATAACT [XGTACX_site495] | 9.41
29 | AAATAAAAAAATACCCAACACCATGCCAAATGTGAA [CACACA_negctrl_site411] | 6.47
30 | ACAAAATGTAAATAAACACACATATTTATATTTATA [CACACA_site6719] | 6.24
31 | AATTCACCAAAAAAAGTGCATATTCAATATATATTA | 7.19
32 | AATAAAATATTATGTGCATGCTGTTTTATTTATTAA [TGCATGCA_site102] | 7.73
33 | TTGGTGGATAAATTTACACACAATAATTTTCGTTCA [CACACA_site467] | 6.46
34 | AATATATATTAAATATGTACTTATTTTTTGGTTGCT [XGTACX_site3613] | 6.58
35 | CGCACCCACAGACACACACACACATATATATATATA [CACACA_site2202] | 9.31
36 | TACATACAGAAACACACACACACATATATATATATA [CACACA_site2919] | 9.13
37 | AAAGAATAATTAAATACACACATATTACAGTAAAAA [CACACA_site2450] | 6.79
38 | AAAATATATTAAGGCACACACATACATATTTATATA [CACACA_site7707] | 6.72
39 | AGATCAATAATGACAAGTACACAAAATAACATTTAA [XGTACX_site6968] | 6.22
40 | ACAAAAAAAAAAAAAAAAAAAAAAAAAAAATAATAA [CACACA_negctrl_site1640] | 5.72
41 | ATTTTGTAAAAGGTCATACACACATATTCAAAAGAA [CACACA_site2946] | 6.49
42 | AAAAATCATATAGGTTGTACGGGTAGTTTATTTTAT [XGTACX_site6936] | 6.59
43 | GTGTATATATGTTATACACACAAAAATATTTTGTAT [CACACA_site265] | 6.73
44 | TTATATATGACTAACGGTTTTTTTTTTTTTTTTTTT [CACACA_negctrl_site576] | 6.79

Row | Sequence | gcPBM binding intensity (ln)
45 | ATATGAAGTATCGAATTAAGGGCAACAAATAAATTA [CACACA_negctrl_site1116] | 6.37
46 | TTATTATATAAAGTTTCACACATTATTTGTTCAAAC [CACACA_site5218] | 6.26
47 | TACATATATAAATATGTACACACATATGTATGATCT [CACACA_site9284] | 6.52
48 | AATATAAGCAAATACACACACACATATAAATATGTA [CACACA_site7741] | 7.03
49 | AAAAAAATAATATAAATAATGAAAAGATATAAATAA [GTGCAC_negctrl_site432] | 6.33
50 | TAATATCAATTTTTATGTACTTATATATATATATAT [XGTACX_site5879] | 8.9
51 | AGTAGTCTGGAGAAGAGTACACAGTATCTGGTAACA [XGTACX_site2032] | 6.02
52 | ATTGAGAGAAAAAAATGTACTTGATCAAAATGGATA [XGTACX_site1649] | 6.69
53 | TATATATATTTTATGTGTACTCAATGTTATAACGCA [XGTACX_site8360] | 6.76
54 | AATAGAGTTGAATGCACACATACAAATTTTTAGTTT [CACACA_site3564] | 8.97
55 | TGTACAGTATATACAACACACATTTGTATAAATATA [CACACA_site1002] | 6.59
56 | TGTACACCCAGAAATGCACACACATATATATATATA [CACACA_site8716] | 9.88
57 | TGCATAATTAAAAATGGTACACTGTATTTATAATAT [XGTACX_site1575] | 6.38
58 | TATAAATTAAGATAACGTACATATAATAATATAAAC [XGTACX_site487] | 6.49
59 | TCTTTTGCCCAAAAAGGTACACACCACAATTTAAAT [XGTACX_site1482] | 6.75
60 | TATTGTATGGTAGGATATGATGTTATTTGTTATAAT [CACACA_negctrl_site202] | 6.49
61 | ATATATATATCACGCACACACGAATTTTAAATATAT [CACACA_site5691] | 8.17
62 | TTATTTTTACAATTTTAATAATAATACTAAAACAAA [XGTACX_negctrl_site538] | 6.02
63 | TTCTATATAATTCAAACATGCACAGGAAATATTATA [TGCATGCA_site290] | 8.31
64 | AACAATGTTTTCTTGTGTACACATCATTAAAGAAAA [XGTACX_site4726] | 6.85
65 | ATAATATATATATATACGCACACTTATGTACGGATT [CACACA_site2120] | 6.85
66 | TATGTAACACATACTTGTACATATATAATTTTTTTA [XGTACX_site6251] | 5.98

Row | Sequence | gcPBM binding intensity (ln)
67 | AAGAAAAAAGGGGACAAGGCATATCTATATATACAT [TGCATGCA_negctrl_site172] | 6.15
68 | ATACATATATATATATGTACATATGCACATATATAC [XGTACX_site7209] | 9.31
69 | TATATTTGTAAGAAGAGTACTAAAAAAAGAATAAAG [XGTACX_site8704] | 6.83
70 | TTCCCTAATATTTGTTGTACTTGTTATATTTTTTTT [XGTACX_site5994] | 6.99
71 | ATATATATATATATATGTACGTACTCAGTTATGCCT [XGTACX_site453] | 9.39
72 | ATTTATTAACCATATACACACATATATTTGTATTTA [CACACA_site6744] | 6.84
73 | ATAGTATCTGGTAGCTGTACGAGTCGTAGAGTGCAG [XGTACX_site2020] | 7.04
74 | AATATATTATAATATACACACATATATGCTCTTTAA [CACACA_site4131] | 7.1
75 | ATATATTATATATATTTTAAGTAATTTGCAAAAAAT [GTGCAC_negctrl_site361] | 9.59
76 | ATTTAAAAGAAATAATGTACGAATCATATTTGATAT [XGTACX_site1785] | 6.22
77 | ATGTATATAATATTATGTACATATATGAAATATTTT [XGTACX_site8168] | 6.66
78 | TTTATTTATTATTGTTGTACACTTTTTATAAAAAAA [XGTACX_site5114] | 6.82
79 | ATAAGAAAAGGACACACACACAAAAAAAAAAAAAAA [CACACA_site7351] | 6.25
80 | TGTTCTTATTTTATAAGCATATAATTAATCATAATG [CACACA_negctrl_site1493] | 6.07
81 | TAGTTTTTTATAAAATTATTTATATAAAGGTAAAAA [CACACA_negctrl_site490] | 6.69
82 | TTCTTTTTTATTTTTCAACACACATAATAAATTTCT [CACACA_site8253] | 6.98
83 | CTTTCCATATATGATAGTACACGATAAAAAAAAAAA [XGTACX_site5772] | 6.74
84 | TTTAAAAAAAATTCATATTATATATATATATATTAT [CACACA_negctrl_site1733] | 6.38
85 | AAAGAAATAAGGTGCACACATATACATATATATATA [CACACA_site429] | 9.38
86 | AACGATTTACATCACTGTACTAATGATATACCTCAT [XGTACX_site7463] | 6.36
87 | TATATATTTTCTTTTGCACACTGTTTTCCTTTTTTT [CACACA_site2739] | 10.2
